The other results are listed elsewhere or left out. Rule as the data show it: active = 3.2 or more and inactive = the rest. Only a few entries rise above the background.

From the supplement of paper PMC10369915 come the findings set out here.

Some targets named below: SHP2 C-SH2 domain E139D; SHP2 N-SH2 domain L43F; SHP2 N-SH2 domain T42A; SHP2 N-SH2 domain T52S.
Holding throughout (assay): enrichment score (SH2-bound / input frequency) (ratio); bacterial display of known human phosphotyrosine sites (pTyr-Var adds point mutants) read by sequencing; higher = stronger binding; tyrosines were phosphorylated by kinases first
Common to all, as to details: peptide library: pTyr-Var

The target of test [1] is SHP2 C-SH2 domain wild-type.
Test [2] deals with SHP2 N-SH2 domain wild-type.
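Also: displayed peptides selected on beads carrying the immobilized SH2 domain, with library peptides lacking any tyrosine serving as negative controls.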

B1: PLEC_Y2967_YF (peptide)
chain: PVDVAYRRGFF
For B1, the enrichment score was inactive: 0.401 with SHP2 C-SH2 domain E139D; inactive: 0.373 in test [1]; inactive: 0.683 with SHP2 N-SH2 domain L43F; inactive: 0.299 in the test with SHP2 N-SH2 domain T42A; inactive: 0.405 in the test with SHP2 N-SH2 domain T52S; inactive: 0.333 in test [2].

B2: PLP1_Y50_L46R (peptide)
chain: KRIETYFSKNY
In the case of B2, the enrichment score was inactive: 0.57 with SHP2 C-SH2 domain E139D; inactive: 0.562 in test [1]; inactive: 0.616 in the test with SHP2 N-SH2 domain L43F; inactive: 0.404 with SHP2 N-SH2 domain T42A; inactive: 0.525 with SHP2 N-SH2 domain T52S; inactive: 0.67 in test [2].

B3: POLE_Y100_YF (peptide)
chain: KVALPYKPFFF
Take B3: the enrichment score was inactive: 1.53 in the test with SHP2 C-SH2 domain E139D; inactive: 1.51 in test [1]; inactive: 1.36 with SHP2 N-SH2 domain L43F; inactive: 1.29 in the test with SHP2 N-SH2 domain T42A; inactive: 1.6 with SHP2 N-SH2 domain T52S; inactive: 1.42 in test [2].

B4: PLD2_Y573 (peptide)
chain: TTKAKYKTPTY
For the molecule B4, the enrichment score was inactive: 0.836 with SHP2 C-SH2 domain E139D; inactive: 0.747 in test [1]; inactive: 0.621 in the test with SHP2 N-SH2 domain L43F; inactive: 0.66 in the test with SHP2 N-SH2 domain T42A; inactive: 0.606 with SHP2 N-SH2 domain T52S; inactive: 0.835 in test [2].

B5: PLCG1_Y991 (peptide)
chain: TKAEKYVNKAK
B5: the enrichment score with SHP2 C-SH2 domain E139D is inactive: 0.828; in test [1] it was inactive: 0.751; with SHP2 N-SH2 domain L43F it was inactive: 0.911; with SHP2 N-SH2 domain T42A, inactive: 0.838; with SHP2 N-SH2 domain T52S, inactive: 1; in test [2] it was inactive: 0.85.

B6: PLP1_Y50_L46P_YF (peptide)
chain: KPIETYFSKNF
Turning to B6, the enrichment score was inactive: 0.804 with SHP2 C-SH2 domain E139D; inactive: 0.737 in test [1]; inactive: 0.628 in the test with SHP2 N-SH2 domain L43F; inactive: 0.678 with SHP2 N-SH2 domain T42A; inactive: 0.872 with SHP2 N-SH2 domain T52S; inactive: 0.827 in test [2].

B7: PLP1_Y50_Y50C (peptide)
chain: KLIETCFSKNY
With B7, the enrichment score in the test with SHP2 C-SH2 domain E139D was inactive: 0.886; in test [1] it was inactive: 1.08; in the test with SHP2 N-SH2 domain L43F, inactive: 1.08; with SHP2 N-SH2 domain T42A, inactive: 0.749; with SHP2 N-SH2 domain T52S, inactive: 0.793; in test [2], inactive: 1.39.

B8: PLEC_Y2967_R2969H_YF (peptide)
chain: PVDVAYRHGFF
As to B8, the enrichment score with SHP2 C-SH2 domain E139D is inactive: 0.801; in test [1], inactive: 0.491; with SHP2 N-SH2 domain L43F it was inactive: 0.73; with SHP2 N-SH2 domain T42A it was inactive: 0.571; with SHP2 N-SH2 domain T52S, inactive: 0.86; in test [2] it was inactive: 0.924.

B9: POC5_Y37_H36R (peptide)
chain: EELLRYAIVTP
As to B9, the enrichment score in the test with SHP2 C-SH2 domain E139D is inactive: 2.27; in test [1], active: 4.43; in the test with SHP2 N-SH2 domain L43F, active: 4.42; in the test with SHP2 N-SH2 domain T42A, active: 4.29; with SHP2 N-SH2 domain T52S, active: 5.17; in test [2], inactive: 1.68.

B10: POLE_Y100_P99L (peptide)
chain: KVALLYKPYFY
Consider B10, for which the enrichment score was inactive: 2.96 in the test with SHP2 C-SH2 domain E139D; active: 3.27 in test [1]; active: 3.45 with SHP2 N-SH2 domain L43F; active: 3.28 in the test with SHP2 N-SH2 domain T42A; inactive: 2.85 with SHP2 N-SH2 domain T52S; active: 3.48 in test [2].

B11: PMP22_Y153_G150D (peptide)
chain: LSDVIYVILRK
Turning to B11, the enrichment score is inactive: 0.676 with SHP2 C-SH2 domain E139D; inactive: 0.7 in test [1]; inactive: 0.498 in the test with SHP2 N-SH2 domain L43F; inactive: 0.667 in the test with SHP2 N-SH2 domain T42A; inactive: 0.512 with SHP2 N-SH2 domain T52S; inactive: 0.309 in test [2].

B12: PLK1_Y462 (peptide)
chain: DGTESYLTVSS
Regarding B12, the enrichment score with SHP2 C-SH2 domain E139D was inactive: 0.645; in test [1], inactive: 0.552; with SHP2 N-SH2 domain L43F, inactive: 0.531; in the test with SHP2 N-SH2 domain T42A, inactive: 0.531; in the test with SHP2 N-SH2 domain T52S, inactive: 0.495; in test [2] it was inactive: 0.709.

B13: PMM2_Y145_R141H (peptide)
chain: EHIEFYELDKK
As to B13, the enrichment score in the test with SHP2 C-SH2 domain E139D is inactive: 0.706; in test [1], inactive: 0.375; in the test with SHP2 N-SH2 domain L43F, inactive: 0.331; with SHP2 N-SH2 domain T42A, inactive: 0.428; with SHP2 N-SH2 domain T52S, inactive: 0.621; in test [2] it was inactive: 0.425.

B14: POLR1C_Y36 (peptide)
chain: GNYSGYDDAWD
For B14, the enrichment score with SHP2 C-SH2 domain E139D is inactive: 0.612; in test [1], inactive: 0.56; with SHP2 N-SH2 domain L43F, inactive: 0.7; with SHP2 N-SH2 domain T42A it was inactive: 0.645; with SHP2 N-SH2 domain T52S it was inactive: 0.564; in test [2], inactive: 0.572.

B15: POR_Y575_Y575C (peptide)
chain: DEDYLCREELA
For B15, the enrichment score is inactive: 0.679 in the test with SHP2 C-SH2 domain E139D; inactive: 0.965 in test [1]; inactive: 0.57 with SHP2 N-SH2 domain L43F; inactive: 0.63 with SHP2 N-SH2 domain T42A; inactive: 0.766 in the test with SHP2 N-SH2 domain T52S; inactive: 0.943 in test [2].

B16: PLEKHG4_Y1068_R1064H (peptide)
chain: DHTVNYVLKCR
B16: the enrichment score with SHP2 C-SH2 domain E139D is inactive: 0.742; in test [1] it was inactive: 0.906; with SHP2 N-SH2 domain L43F, inactive: 0.641; with SHP2 N-SH2 domain T42A, inactive: 0.721; with SHP2 N-SH2 domain T52S, inactive: 0.539; in test [2], inactive: 0.815.

B17: PMP22_Y153_R157W (peptide)
chain: LSGVIYVILWK
For B17, the enrichment score with SHP2 C-SH2 domain E139D was inactive: 1.03; in test [1], inactive: 0.978; in the test with SHP2 N-SH2 domain L43F it was inactive: 1.25; in the test with SHP2 N-SH2 domain T42A it was inactive: 1.18; with SHP2 N-SH2 domain T52S it was inactive: 1.35; in test [2], inactive: 0.844.

B18: PMP22_Y117_T118M (peptide)
chain: SAAAIYMVRHP
With B18, the enrichment score in the test with SHP2 C-SH2 domain E139D was inactive: 1.18; in test [1], inactive: 1.19; with SHP2 N-SH2 domain L43F it was inactive: 1.21; with SHP2 N-SH2 domain T42A it was inactive: 1.07; in the test with SHP2 N-SH2 domain T52S it was inactive: 1.28; in test [2] it was inactive: 1.38.

B19: PLP1_Y207_P211L (peptide)
chain: ADARMYGVLLW
In the case of B19, the enrichment score in the test with SHP2 C-SH2 domain E139D is inactive: 0.539; in test [1], inactive: 0.832; in the test with SHP2 N-SH2 domain L43F, inactive: 0.558; with SHP2 N-SH2 domain T42A, inactive: 0.596; with SHP2 N-SH2 domain T52S, inactive: 0.475; in test [2], inactive: 0.759.
